From the RNAGym collection of RNA variant scans (doi:10.7554/elife.90254)
Read counts are not given, so values of variants with three or more changes are uncertain.

B1: OR4K15 (parent)
chain: GUUAACGGUCAUAGGCCAUGGAAACUAGGAGCACCAUUUCGCUGCCAGUGAAGAAAUGAACAAAGAAAAUCUGGGCCAGGCAGGCAUCAAAAGAAAUAGUCUUGCGCUCAACCAGAAAGUCUGUAAUCAUUUUAAGGGUA

Variants of: B1
Experiment: self-cleavage, relative activity (ratio to wild type); higher = more cleavage; in vitro, sequencing; the parent is a self-cleaving ribozyme
For GUUAACGGUCAUAGGCCAUGGAAACUGGGAGCACCAUUUCGCUGCCAGUGAAGAAAUGAACAAAGAAGAUCUGGGCCAGGCGGGCAUCAAAAGAAAUAGUCUUGCGCUCAACCAGAAAGUCUGUAAUCAUCUUAAGGGUA [A27G A68G A82G U131C], the self-cleavage was 0.38. In the case of GUUAACGGUCAUAGGCCAUGGAAACUGGGAGCACCAUUUCGCUGCCAGUGAAGAAAUGAACAAAGAAAAUCUGGGCCAGGCAGGCAUCAAAAGAAGUAGUCUUGCGCUCAGCCAGAAAGUCUGUAAUAAAUUUAAAGGUA [A27G A96G A111G C128A U130A G136A], the self-cleavage is reported as 0. GUUAACGGUCAUAGGCCAUGGAAACUGGGAGCACCAUUUCGCUGCCAGUGAAGAAAUGAACAAAGAAAAUCUGGGCCAGGCGGGCGUCAAAAGAAAUAGCCUUGCGCUCAACCAGAAAGUCUGUAAUCAUUUUAAGGGUA [A27G A82G A86G U100C] showed a self-cleavage of 0.99. In the case of GUUAACGGUCAUAGGCCAUGGAAACUGGGAGCACCACUUCGCUGCCAGUGAAGAAAUGAACAAAGAAAAUCUGGGCCAGGCAGGCAUCAGAAGAAAUAGUCUUGCGCUCAACCAGAAAGUCUGUAAUCAUUUUAAGGGUA [A27G U37C A90G], the self-cleavage is reported as 1.1. Work on GUUAACGGUCAUAGGCCAUGGAAACUGGGAGCACCAUUUCGCUGCCAGUGAAGAAAUGAACAAAGAAAAUCUGGGCCGGGCGGGCACCAAAAGAAAUAGUCUCGCGCUCAACCAGAAAGUCUGUAAUCAUUUUAAGGGUA [A27G A78G A82G U87C U103C] yielded a self-cleavage of 0.21. Variant GUUAACGGUCAUAGGCCAUGGAAACUGGGAGCACCAUUUCGCUGCCAGUGAAGAAAUGAACAAAGAAAAUCUGGGCCAGGCAGGCAUCAAAAGAAAUAGUCUUGCGCUCAACCAGAAGGUCGGUAAUCAUUCUAAGGGUA [A27G A118G U122G U132C] has a self-cleavage of 1.52. Work on GUUAACGGUCAUAGGCCAUGGAAACUGGGAGCACCAUUUCGCUGCCAGUGAAGAAAUGAACAAAGAAGAUCUGGGCCAGGCAGGCGUCAAAAGAAAUAGUCUUGCGCUCAACCAGAAAGUCUGUAAUCAUUUUAAGGGUA [A27G A68G A86G] yielded a self-cleavage of 1. With GUUAACGGUCAUAGGCCAUGGAAACUGGGAGCACCAUUUCGCUGCCAGUGAAUAAAUGAACAAGGAAAAUCUGGGCCAGGCAGGCAUCAAAAGAAAUAGUCCUGCGCUCAGCCAGAAAGUCUGUAAUCAUUUUAAGGGUA [A27G G53U A64G U102C A111G] the self-cleavage was 0.02. Work on GUUAACGGUCAUAGGCCAUGGAAACUGGGAGCACCAUUUCGCUGCCAGUGAAGAAAUGAACAAAGAAAAUCUGGGCCAGGCAGGCAUCAAAAGAAAUAGUCUUGAGCUCAGCCAGAAAGUCUGUAAUCAUUUUAGGGGUA [A27G C105A A111G A135G] yielded a self-cleavage of 0. With GUUAACGGUCAUAGGCCAUGGAAACUGGGAGCACCAUUUAGCUGCCAGUGAAGAAAUGAACAAAGAAAAUCUGGGCCAGGCAGGCAUCAAAAGAAAUAGUCUUGCGCUCAACCAGAAAGUCUGUAAUCACUUUAAGGGUA [A27G C40A U130C] the self-cleavage was 0.53. GUUAACGGUCAUAGGCCAUGGAAACUGGGAGCACCAUAUCGCUGCCAGUGAAGAAAUGAACAAAGAAAAUCUGGGCCAGGCAGGCAUCAAAAGAAAUAGUCUUGCGCUCAACCAGAAAGCCUGUAAUCAUUUUAAGGGUA [A27G U38A U120C] showed a self-cleavage of 0.88. Work on GUUAACGGUCAUAGGCCAUGGAAACUGGGAGCACCAUUUCGCUGCCAGUGAAGAAAUGAACAAAGAAAAUCUGGGCCAGGCAGGCAUCAAAAGAAAUGGUCUUGCGCUCAACCAGAAAGUCUGUAAUCAUUGUAAGGGUA [A27G A98G U132G] yielded a self-cleavage of 0.85. GUUAACGGUCAUAGGCCAUGGAAACUGGGAGCACCAUUUCGCUGCCAGUGAAGAAAUGAACAAAGAAAAUCUGGGCCAGGCGGGCAUCAAAAGAAAUAGCCUUGCGCUCAACCAGAAAGUCUGUAAUCAUUUUAAGGGUA [A27G A82G U100C] gave a self-cleavage of 1.6. GUUAACGGUCAUAGGCCAUGGAAACUGGGAGCACCAUUUCGCUGUCAGUGAAGGAAUGAACAAAGAAGAUCUGGGCCAGGCAGGCAUCAAAAGAAAUAGUCUUGCGCUCAACCAGAAAGUCUGUAAUCAUUUUAAGGGUA [A27G C45U A54G A68G] gave a self-cleavage of 0.78. GUUAACGGUCAUAGGCCAUGGAAACUGGGAGCACCAUUUCGCUGCCAGUGAAGAAAUGAACAAAGAAAAUCUGGGCCAGGCAGGCGUCAGAGGAAAUAGUCUUGCGCUCAACCAGAAAGUCUGUAAUCAUUUUAAGGGUA [A27G A86G A90G A92G] showed a self-cleavage of 0.95. Work on GUUAACGGUCAUAGGCCAUGGAAACUGGGAGCACCAUCUCGCUGCCAGUGGAGAAAUGAACAAAGAAAAUCUGGGCCAGGCAGGCAUCAAAAGAAAUAGUCUUGCGCUCAACCAGAAAGUCUGUAAUCAUUUUAAGGGUA [A27G U38C A51G] yielded a self-cleavage of 1.63. GUUAACGGUCAUAGGCCAUGGAAACUGGGAGCACCAUUUCGCUGCCAGUGAAGAAAUGAACAAAGAAAAUCUGGGCCAGGCAGGCAUCAAAAGAAAUAGUCUUGCGCUCAACCAGAAAGUCUGUAGUCAUUUUAAGGGUG [A27G A126G A140G] gave a self-cleavage of 1.42. GUUAACGGUCAUAGGCCAUGGAAACUGGGAGCACCAUCUCGCUGCCAGUGAAGGUAUGAACAAAGAGAAUCCGGGCCAGGCAGGCAUCGAAAGAAAUAGUCUUGCGCUCAACCAGAGAGUCUGUAAUCAUUUUAAGGGUA [A27G U38C A54G A55U A67G U72C A89G A117G] gave a self-cleavage of 0.68. For GUUAACGGUCAUAGGCCAUGGAAACUGGGAGCACCAUUUCGCUGCUAGUGAAGAAAUGAACAAAGAAAAUCUGGGCCAGGCAGGCAUCAAAAGAAAUAGUCUUGCGCUCAACCAGGAAGUCUGUAAUCAUUUUAAGGGUA [A27G C46U A116G], the self-cleavage was 0.65. GUUAACGGUCAUAGGCCAUGGAAACUGGGAGCACCACCUCGCUGCCAGUGAAGAAAUGAACAAAGAAAAUCUGGGCCAGGCAGGCAUCAAAAGAAACAGUCUUGCGCUCAACCAGAAAGUCUGUAAUCAUUUUAAGGGUA [A27G U37C U38C U97C] gave a self-cleavage of 0.85. With GUUAACGGUCAUAGGCCAUGGAAACUGGGAGCACCAAUUCGCUGCCAGUGAAGAAAUGAACAAAGAAAAUCUGGGCCAGGCAGGCAACAAAAGAAAUAGUCUUGCGCUCAACCAGAAAGUCUGUAAUCGUUCUAAGGGUG [A27G U37A U87A A129G U132C A140G] the self-cleavage was 0.75.
